Measurements reported in PubChem BioAssay AID1346428 (National Center for Advancing Translational Sciences (NCATS), 2018).
Where “and” joins values, the source holds several entries; their conditions need not be identical. Identical values can stand only once. About 1,200 (2.5%) of roughly 48,000 compounds were called active. Another 2% or so got no clear call; they are omitted.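 Rule for the calls: active = activation of at least 60% and not above a set upper limit (about 1 call in 100 departs from these limits); inconclusive = activation of 40% to 60%, or above that upper limit; inactive = activation under 40%.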 The list shows a part of the results.

Molecular target: Probable G-protein coupled receptor 32 (Homo sapiens) (UniProt O75388)
UniProt O75388, sequence (O75388 whole entry, looked up): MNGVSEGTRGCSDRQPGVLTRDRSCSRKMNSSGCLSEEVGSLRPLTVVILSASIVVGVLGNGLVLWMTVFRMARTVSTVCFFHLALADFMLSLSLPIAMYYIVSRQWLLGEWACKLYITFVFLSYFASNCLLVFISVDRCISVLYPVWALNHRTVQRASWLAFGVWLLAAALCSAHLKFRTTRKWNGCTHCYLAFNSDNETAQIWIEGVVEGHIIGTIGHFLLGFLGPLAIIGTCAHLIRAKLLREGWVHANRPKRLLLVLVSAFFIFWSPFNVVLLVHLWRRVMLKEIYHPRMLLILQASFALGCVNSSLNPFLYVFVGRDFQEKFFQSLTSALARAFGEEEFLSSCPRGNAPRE
Assay: qHTS for Agonists of Human Resolvin D1 Receptor DRV1; note: 0% is about no effect
Conditions: CHO-K1 GPR32 beta-arrestin PathHunter luminescence, 90 min; at 76.9 µM; hits give high values; zero percent set by DMSO-only wells
Outline: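 Using DMSO wells as EC0, agonist-induced signal was taken as chemiluminescence from beta-Gal reconstituted upon beta-arrestin recruitment to GPR32 in CHO-K1 cells after 90 min compound treatment.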

activation, inactive:
CCC(C)NC(=O)CSc1nc2c(sc3ccccc32)c(=O)n1Cc1ccccc1Cl (stereo not drawn) -21%
Cc1ccc(C)c(Cn2c3ccccc3c3cnn(CC(=O)NCc4ccccc4)c(=O)c32)c1 23.9%
Cc1ccc(NC(=O)CSc2nc(-c3ccco3)nc3cc(=O)[nH]n23)cc1C -7.04%
Clc1ccccc1CNc1ncnc2c1c(-c1ccccc1)cn2-c1ccccc1 -6.9%
Fc1ccccc1Cn1c(-c2ccccc2)nc2ccccc21 -38.6%
COCCCNC(=O)CSc1nc2c(sc3ccccc32)c(=O)n1CCCC(=O)NCCOC -3.08%
Cc1ccccc1OCc1nnc(SCc2cc(=O)c3cccc(F)c3[nH]2)n1C 26.1%
COc1cccc(N2CC(NC(=O)c3cccc(OC)c3OC)CC2=O)c1 (stereo not drawn) -5.27%
CC(=O)c1ccc(NC(=O)COCc2cc(-c3ccco3)on2)cc1 -12.5%
COc1ccc2c(c1)c1c(c(=O)n(-c3cccc(Cl)c3)c(=O)n1CC(=O)N1CCCC1)n2C -0.718%
Cc1ccc(-c2cc(C(=O)Oc3ccccc3)c3cc(C)ccc3n2)cc1 4.86%
Clc1ccccc1CN1CCc2sccc2C1 39.4%
CCC1CCCCN1CCCNC(=O)CN1C(=O)CSc2ccc(S(=O)(=O)N3CCOCC3)cc21 (stereo not drawn) -16.1%
COc1ccc2nc(NC(=O)c3nc(S(=O)(=O)Cc4cccc(C)c4)ncc3Cl)sc2c1 -6.13%
CCOC(=O)Cn1nc(C)c(NC(=O)COc2ccc(Cl)cc2C)c1C 38.9%
CCOc1ccccc1NC(=O)Cn1ccn(Cc2ccc(C)cc2)c(=O)c1=O -9.27%
Cc1cccc2c1-c1sc(C(=O)N(C)c3cccc(C(F)(F)F)c3)cc1CO2 -26.7%
CC(=O)C1=C(c2ccc(C)c(C)c2)N(C(C)=O)n2c(nnc2-c2ccc(Cl)cc2)S1 -19.4%
CCNC(=O)c1nn(-c2ccccc2C)nc1CO -12.5%
Cc1cccc(CNC(=O)CCCn2c(=O)c3cccn3c3ccc(F)cc32)c1 -26.2%
Cc1csc2nc(COc3ccccc3NC(=O)c3ccc(C(C)(C)C)cc3)cc(=O)n12 20%
N#Cc1cccc(NC(=O)C2CCN(S(=O)(=O)c3ccc4[nH]c(=O)ccc4c3)CC2)c1 -5.29%
Cc1ccccc1-n1nc(CO)c(C(=O)NCc2cccs2)n1 -14%
Cc1ccc(CN2CCN(CC(=O)Nc3ccc(C)c(C)c3)S2(=O)=O)cc1 -10.9%
O=C(Cn1c(=O)n(-c2ccccc2Cl)c(=O)c2sc3ccccc3c21)NC1CCCCC1 -9.83%
Cc1c(NC(=O)c2nc3ccccc3nc2N2CCCCC2)cccc1[N+](=O)[O-] -37.1%
Cc1ccccc1OC(=O)CSc1nnc(-c2ccc(F)cc2)o1 -5.42%
NC(=O)C1=CN(C2OC(COP(=O)(O)OP(=O)(O)OC[C@H]3O[C@@H](n4cnc5c(N)ncnc54)[C@H](OP(=O)(O)O)[C@@H]3O)C(O)C2O)C=CC1 (stereo partly drawn) 11.3%
Cc1c(C)c2c(c(C)c1OC(=O)c1cccnc1)CC[C@@](C)(CCC[C@H](C)CCC[C@H](C)CCCC(C)C)O2 -6.93%
CCOC(=O)c1cc(C)n(CC2CCC(C(=O)Nc3ccc(C)c(F)c3)CC2)c1C (stereo not drawn) -7.76%
CN(C)CCCN1c2ccccc2CCc2ccc(Cl)cc21 32.4% and -9.49%
Cc1ccc(C(=O)Nc2ccc(-c3nc4ccccc4s3)cc2C)cc1C 20.7%
COC(=O)c1ccccc1NC(=O)Nc1nnc(N2CCC(C)CC2)s1 -1.1%
CCOc1cc(CNC(=O)NC2COc3ccc(OC)cc3C2)cc(OCC)c1OCC (stereo not drawn) -13%
COc1ccc(N2CC(NC(=O)CCCc3ccccc3)CC2=O)cc1 (stereo not drawn) -12.5%
CC(=O)c1ccc(NC(=O)CSc2nc(-c3cccc(F)c3)nc3c2c(=O)n(C)c(=O)n3C)cc1 -7.44%
Cc1ccc2nc(N(Cc3cccnc3)C(=O)CCS(=O)(=O)c3ccccc3)sc2c1 -12.4%
CCOc1ccc(CCNC(=O)CN2N=C(c3ccccc3)CCC2=O)cc1OCC -19%
CCCCN(CC)CCCNC(=O)c1cc2c(=O)[nH]c3ccccc3c2s1 14.6%
CN1C(C(=O)Nc2ccc(F)cc2F)=CC(c2ccc3c(c2)OCO3)=NS1(=O)=O -15.1%
Cc1cc(C)cc(NC(=O)CN2C(=O)c3ccccc3Sc3ncccc32)c1 -3.94%
COc1ccc(CNC(=O)c2ccc3c(c2)nc2n3CCOC2)c(OC)c1 -8.83%
Cc1ccc(CN(Cc2ccco2)C(=O)COc2ccc(C(C)C)cc2)cc1 -20.9%
Cc1cc(NC(=O)C2=C(O)c3ccccc3S(=O)(=O)N2C)no1 -15.2%
Cc1ccc(-c2cc(C(F)(F)F)c(C#N)c(SCC(=O)Nc3ccccc3)n2)cc1 -29.6%
COc1ccc(OC)c(CCNC(=O)c2csc3c2CCCCC3)c1 5.49%
CCOc1cccc(C2c3c(-c4cc(C)ccc4O)n[nH]c3C(=O)N2Cc2ccco2)c1 (stereo not drawn) 28.1%
Cc1ccc(CNC(=O)c2cc3c(=O)n(Cc4cccnc4)ccc3nc2C)cc1 -7.97%
CCOC(=O)C(C)NC(=O)c1c(C)oc2ncn(CC(C)C)c(=O)c12 (stereo not drawn) -4.51%
CCOC(=O)C1CCN(C(=O)c2ccc3c(=O)n4nc(Nc5cc(C)ccc5C)sc4nc3c2)CC1 -3.53%
CCC(=O)C1=C(c2cccc(OC)c2)N(C(=O)CC)n2c(nnc2C2CCCCC2)S1 -44.8%
CCn1cc(C(=O)N2CCN(c3ccc(C(C)=O)cc3)CC2)c2cc(OC)c(OC)cc2c1=O -0.639%
COc1cccc(NC(=O)C2CCN(c3nn4cc(-c5ccc(F)cc5)nc4s3)CC2)c1 -1.49%
